# Source: the BET-seq Pho4 binding data (Le et al. 2018)
# Some of the results follow. Values were computed here from the reads of four pooled replicates and scatter widely.
# Target: T1, Pho4 (S. cerevisiae) (UniProt P07270)
# T1 sequence: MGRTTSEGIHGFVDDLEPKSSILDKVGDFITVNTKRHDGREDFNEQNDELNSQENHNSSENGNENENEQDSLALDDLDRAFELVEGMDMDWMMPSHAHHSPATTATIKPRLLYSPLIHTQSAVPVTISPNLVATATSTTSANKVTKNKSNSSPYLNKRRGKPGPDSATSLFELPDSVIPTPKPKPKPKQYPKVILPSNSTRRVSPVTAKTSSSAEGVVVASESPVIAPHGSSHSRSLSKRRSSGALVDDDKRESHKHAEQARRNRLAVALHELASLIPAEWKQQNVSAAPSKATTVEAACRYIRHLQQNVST
# Test: relative binding free energy (BET-seq); higher = weaker binding
# Conditions: reference: library average
row,Sequence,relative binding free energy
1,CGTGGCACGTGTATGA,0 kcal/mol
2,TGTTACACGTGGTCAG,-0.11 kcal/mol
3,GTTCGCACGTGGGTCG,-0.12 kcal/mol
4,GTTTGCACGTGCGTAA,-0.07 kcal/mol
5,GTGTTCACGTGGTAGC,0.29 kcal/mol
6,TTCTGCACGTGTAGGA,0.11 kcal/mol
7,TAAGACACGTGGTTGG,0.01 kcal/mol
8,TGGTACACGTGGTATC,-0.14 kcal/mol
9,GTATTCACGTGGCGTT,0.18 kcal/mol
10,TGGGACACGTGTTGCG,0.13 kcal/mol
11,TGCAACACGTGTTGTT,0 kcal/mol
12,ACGTTCACGTGTCGTT,0.3 kcal/mol
13,GGAATCACGTGGGGCT,0.03 kcal/mol
14,GGTTACACGTGCGGTA,0.09 kcal/mol
15,AGGGACACGTGTTGGA,0.12 kcal/mol
16,TTCAGCACGTGGCGGT,-0.12 kcal/mol
17,TGCTGCACGTGTGAAG,-0.01 kcal/mol
18,GTTGACACGTGAGCGT,0.14 kcal/mol
19,TACTTCACGTGGTTGT,0.27 kcal/mol
20,GAGTTCACGTGGAAAA,0.58 kcal/mol
21,AGGTCCACGTGGTGTT,-0.07 kcal/mol
22,GTGGTCACGTGTGCTC,0.1 kcal/mol
23,TAGTGCACGTGTCGAA,-0.05 kcal/mol
24,AGGGCCACGTGGGTAG,-0.17 kcal/mol
25,ACGTACACGTGGTGTG,-0.05 kcal/mol
26,AGTATCACGTGTAATT,0.06 kcal/mol

row,Sequence,relative binding free energy
1,GGGGGCACGTGATCGT,0 kcal/mol
2,TGGCTCACGTGGTAAG,0.09 kcal/mol
3,ATTGTCACGTGGGACG,0 kcal/mol
4,AAGGGCACGTGAGCGG,0.11 kcal/mol
5,GTAGACACGTGGTCTG,-0.1 kcal/mol
6,AGAGTCACGTGTTTTC,0.1 kcal/mol
7,TAGCGCACGTGGGCTT,-0.06 kcal/mol
8,CGTAACACGTGTGGAT,0.12 kcal/mol
9,GTTTTCACGTGTCATC,0.3 kcal/mol
10,GGGGGCACGTGCGCGA,-0.21 kcal/mol
11,TAGGACACGTGAGGAA,0.23 kcal/mol
12,ATAATCACGTGGGATT,0.01 kcal/mol
13,CTGTGCACGTGGTTGT,-0.07 kcal/mol
14,TAGATCACGTGGCATG,0.02 kcal/mol
15,TGCCGCACGTGGTGTG,-0.28 kcal/mol
16,TTATGCACGTGTTGAA,0 kcal/mol
17,CGGGTCACGTGTATGA,0.3 kcal/mol
18,GCCTTCACGTGGGGTG,0.05 kcal/mol
19,ACGTCCACGTGGGGGT,-0.09 kcal/mol
20,CCTTTCACGTGGTTAT,0.24 kcal/mol
21,CTTGACACGTGTGAGG,-0.02 kcal/mol
22,TAAAACACGTGTATTA,0.14 kcal/mol
23,ATTTACACGTGAGTTC,0.3 kcal/mol
24,AGCCGCACGTGTGTTG,0.12 kcal/mol
25,TGGGGCACGTGTTTAA,-0.12 kcal/mol
26,GATATCACGTGGTGAG,0.01 kcal/mol

row,Sequence,relative binding free energy
1,CACGTCACGTGGGGTA,-0.08 kcal/mol
2,TATCTCACGTGTGGGA,0.21 kcal/mol
3,AGCAGCACGTGTAGGG,-0.06 kcal/mol
4,AGGTACACGTGTCTTG,-0.04 kcal/mol
5,TGTGACACGTGATTGG,0.17 kcal/mol
6,TTGTACACGTGGCGTT,0.03 kcal/mol
7,CCTGTCACGTGTTGTA,0.09 kcal/mol
8,GTTTGCACGTGGGTTA,0.03 kcal/mol
9,ATGTGCACGTGATGCA,0.03 kcal/mol
10,TATAGCACGTGGCTGT,-0.16 kcal/mol
11,GTCTGCACGTGAGGAG,0.22 kcal/mol
12,CTAGTCACGTGGTAGA,0.03 kcal/mol
13,TGGGCCACGTGACGGG,0.04 kcal/mol
14,ATTTTCACGTGTGAGG,0.33 kcal/mol
15,TGGGGCACGTGGATCT,-0.13 kcal/mol
16,ATACTCACGTGGGGGA,0.03 kcal/mol
17,CGGGTCACGTGGGGTT,0 kcal/mol
18,TAGGACACGTGGGTCG,-0.14 kcal/mol
19,TTCATCACGTGGGGCT,-0.04 kcal/mol
20,CTATTCACGTGGATTG,0.14 kcal/mol
21,TAGCGCACGTGAGGTG,0.01 kcal/mol
22,GTAGGCACGTGGGCAA,-0.15 kcal/mol
23,GCTGGCACGTGGAGTG,0.05 kcal/mol
24,AGAGTCACGTGGTATT,0.03 kcal/mol
25,TGTTTCACGTGATGAA,0.32 kcal/mol
26,AATGCCACGTGAAGGG,0.16 kcal/mol

row,Sequence,relative binding free energy
1,AGATGCACGTGGATAT,-0.11 kcal/mol
2,ATAAGCACGTGTGGCG,0 kcal/mol
3,ATGGTCACGTGAAGGC,0.24 kcal/mol
4,GCACGCACGTGTGTTG,-0.01 kcal/mol
5,GATAGCACGTGTGGAA,0.03 kcal/mol
6,TGAGTCACGTGGGCGA,0.01 kcal/mol
7,GGGCTCACGTGTAGTC,0.36 kcal/mol
8,GTGGTCACGTGTCCTT,0.41 kcal/mol
9,TTTGACACGTGGCGGC,-0.04 kcal/mol
10,AGTATCACGTGGTTGG,0.1 kcal/mol
11,TTTGTCACGTGCTGGA,0.15 kcal/mol
12,TTATTCACGTGAACTG,0.38 kcal/mol
13,GTGTACACGTGGTTTT,0.1 kcal/mol
14,GATTTCACGTGTTGGT,0.28 kcal/mol
15,GGGTGCACGTGAGAGA,0.25 kcal/mol
16,GGAGACACGTGGTGGG,-0.1 kcal/mol
17,TAATTCACGTGCTTGG,0.06 kcal/mol
18,GCAGACACGTGTAGGG,0.21 kcal/mol
19,AAGTTCACGTGTTTTC,0.31 kcal/mol
20,ATATACACGTGTAGGT,0.01 kcal/mol
21,TAGAGCACGTGAAGTG,0.12 kcal/mol
22,TCTTTCACGTGGTACG,0.21 kcal/mol
23,AGATACACGTGGGTGT,-0.39 kcal/mol
24,TGTGTCACGTGCTTCG,-0.01 kcal/mol
25,GTTTGCACGTGCCGTT,-0.03 kcal/mol
26,TTTGGCACGTGTACGG,0.06 kcal/mol

row,Sequence,relative binding free energy
1,TGGGTCACGTGCCCGG,0.06 kcal/mol
2,TGTGTCACGTGTGAAT,0.12 kcal/mol
3,GCATACACGTGGGGGT,-0.02 kcal/mol
4,TTTTGCACGTGGGGCG,-0.13 kcal/mol
5,ATGAACACGTGTTTAA,0.04 kcal/mol
6,AATGACACGTGCTGGG,0.05 kcal/mol
7,TTATACACGTGGTTGC,-0.04 kcal/mol
8,GCTATCACGTGGATGT,0.2 kcal/mol
9,TGGAGCACGTGTGTCT,-0.09 kcal/mol
10,TTTGGCACGTGCAAGA,-0.07 kcal/mol
11,GAGGGCACGTGCGACG,-0.03 kcal/mol
12,TGGCTCACGTGTGCAG,0.2 kcal/mol
13,GGGGGCACGTGATTAC,0.07 kcal/mol
14,CGGGTCACGTGGGAGA,-0.02 kcal/mol
15,TGATGCACGTGTGCGA,-0.11 kcal/mol
16,TGGAACACGTGAGTTA,0.25 kcal/mol
17,ATAGGCACGTGTTAGG,-0.06 kcal/mol
18,TAAGTCACGTGTTCAT,0.04 kcal/mol
19,GGTAACACGTGGTAGA,0.01 kcal/mol
20,ACTATCACGTGGTGGT,0.05 kcal/mol
21,CTGGGCACGTGACAGG,-0.05 kcal/mol
22,AATTTCACGTGTGTCT,0.19 kcal/mol
23,TCAGTCACGTGGTAAG,0.13 kcal/mol
24,GGTTGCACGTGGCTCA,0.09 kcal/mol
25,TGGTGCACGTGGGGAC,-0.13 kcal/mol
26,TAAGTCACGTGGGAAC,0.21 kcal/mol

row,Sequence,relative binding free energy
1,GGGCGCACGTGGGTTC,-0.13 kcal/mol
2,GGTGACACGTGGGCGG,0.05 kcal/mol
3,GTGGTCACGTGATTTA,0.32 kcal/mol
4,TTAGACACGTGTATTG,0 kcal/mol
5,TTTGCCACGTGTTGTT,-0.12 kcal/mol
6,TTCGTCACGTGCTGTT,0.06 kcal/mol
7,TGGTGCACGTGTCTAG,-0.09 kcal/mol
8,TTGGCCACGTGTTTTT,0 kcal/mol
9,CTGGACACGTGTGGGC,-0.03 kcal/mol
10,ATGTTCACGTGCGTCG,0.1 kcal/mol
11,TTTAACACGTGGGTTG,-0.14 kcal/mol
12,TTCTGCACGTGATATG,0.12 kcal/mol
13,TGATACACGTGTGAGT,-0.03 kcal/mol
14,GGTGCCACGTGTTTAG,0.07 kcal/mol
15,TGGTTCACGTGTATTC,0.35 kcal/mol
16,GGGGTCACGTGGCGGG,0.09 kcal/mol
17,TTGTGCACGTGGGAGT,0.01 kcal/mol
18,CCGTGCACGTGTGATG,0.26 kcal/mol
19,CCGGGCACGTGTGGGT,-0.07 kcal/mol
20,GAAGTCACGTGTTTGT,0.09 kcal/mol
21,TTCAGCACGTGTTAGA,0.04 kcal/mol
22,GTTGGCACGTGTAGGG,0.14 kcal/mol
23,GTGTTCACGTGATAGA,0.41 kcal/mol
24,ACTTGCACGTGCTTGT,0.03 kcal/mol
25,TATTCCACGTGAGGAG,0.35 kcal/mol
26,TCGCACACGTGAGGGG,0.36 kcal/mol

row,Sequence,relative binding free energy
1,ATATACACGTGCTGTT,-0.06 kcal/mol
2,TAAGGCACGTGACGGG,0.01 kcal/mol
3,AGTACCACGTGTAGGG,-0.18 kcal/mol
4,GTGAGCACGTGGTTGA,-0.13 kcal/mol
5,TCGATCACGTGTTTGG,0.25 kcal/mol
6,AGTAGCACGTGTCGTA,0 kcal/mol
7,TACGTCACGTGTATAT,0.13 kcal/mol
8,TGTAGCACGTGGGGAT,-0.23 kcal/mol
9,CAATTCACGTGGGGAG,0.12 kcal/mol
10,TAGGTCACGTGATGTG,0.24 kcal/mol
11,TCGGTCACGTGTGTGC,0.02 kcal/mol
12,AAGGGCACGTGGTACA,-0.08 kcal/mol
13,ATGGACACGTGCGTGT,-0.12 kcal/mol
14,AAGTTCACGTGGTGAC,0.44 kcal/mol
15,CTGGGCACGTGTGAGG,-0.01 kcal/mol
16,GGGGGCACGTGGTGTC,-0.18 kcal/mol
17,AAACTCACGTGGTGGT,0.11 kcal/mol
18,AGGTTCACGTGTGATT,0.48 kcal/mol
19,GGTAGCACGTGGGTCT,-0.15 kcal/mol
20,GGCCACACGTGGTAGG,0.07 kcal/mol
21,ACTGGCACGTGTTGGA,0.07 kcal/mol
22,GAATGCACGTGGCTGT,0.03 kcal/mol
23,TTGTTCACGTGGTAGC,0.29 kcal/mol
24,CCGGTCACGTGGGGGC,-0.08 kcal/mol
25,AGTTTCACGTGAGAGC,0.5 kcal/mol
26,CTATTCACGTGTGAGG,0.12 kcal/mol

row,Sequence,relative binding free energy
1,TTTAACACGTGCCTGT,-0.02 kcal/mol
2,CGGGACACGTGAGGGA,0.21 kcal/mol
3,TATGTCACGTGCTAAG,-0.02 kcal/mol
4,ATGAACACGTGATGGG,0.08 kcal/mol
5,AGAAGCACGTGTATTT,-0.06 kcal/mol
6,CTGTACACGTGTATGT,0.09 kcal/mol
7,AAGTTCACGTGTGTGT,0.2 kcal/mol
8,GTATACACGTGAAAGG,0.32 kcal/mol
9,GGAGTCACGTGGGACG,0.11 kcal/mol
10,AGTTTCACGTGGGCTG,0.17 kcal/mol
11,ACGGTCACGTGGGATT,0.07 kcal/mol
12,AGTGGCACGTGTAGCC,0.04 kcal/mol
13,AGGTGCACGTGTATTC,0 kcal/mol
14,GGGATCACGTGGGGAC,0.1 kcal/mol
15,ATGATCACGTGTGGTC,0.25 kcal/mol
16,TGGCACACGTGGAGGC,0.2 kcal/mol
17,TGGGGCACGTGAGGGA,0.09 kcal/mol
18,CGGAACACGTGAGGGT,0.23 kcal/mol
19,GTCATCACGTGAGTAG,0.39 kcal/mol
20,ATTTTCACGTGGTACG,0.19 kcal/mol
21,GGCTACACGTGCGGGT,0.13 kcal/mol
22,GCTGTCACGTGCTTGG,0.15 kcal/mol
23,TTTGGCACGTGCATTT,-0.1 kcal/mol
24,GTTGCCACGTGTTATA,0.12 kcal/mol
25,CAGTGCACGTGAGGTT,0.19 kcal/mol
26,TTGCTCACGTGTGGGA,0.22 kcal/mol

row,Sequence,relative binding free energy
1,TGTATCACGTGAGTAA,0.2 kcal/mol
2,GGGTACACGTGGGGCG,-0.02 kcal/mol
3,ATGTGCACGTGGTAAT,-0.02 kcal/mol
4,TGTATCACGTGTATAA,0.19 kcal/mol
5,GATATCACGTGAGAGG,0.26 kcal/mol
6,TATAACACGTGGCGTG,-0.06 kcal/mol
7,TTTTTCACGTGTGTAG,0.27 kcal/mol
8,AGTTTCACGTGTCGAT,0.21 kcal/mol
9,ATGATCACGTGTGAGT,0.08 kcal/mol
10,GTGGGCACGTGCCGGG,-0.11 kcal/mol
11,TTGTGCACGTGCATGC,-0.06 kcal/mol
12,TATCGCACGTGAAGGT,0.23 kcal/mol
13,AGATTCACGTGGGGAG,0.17 kcal/mol
14,GGGGACACGTGATAGT,0.2 kcal/mol
15,TGCGACACGTGTGGGT,0.09 kcal/mol
16,TGGTGCACGTGGATCA,-0.1 kcal/mol
17,TTTGCCACGTGCTTTG,-0.1 kcal/mol
18,GGTTTCACGTGACTTG,0.29 kcal/mol
19,AAGTGCACGTGATGAA,0.11 kcal/mol
20,ATGCTCACGTGTTTGG,0.28 kcal/mol
21,TAGTACACGTGGGTGG,0 kcal/mol
22,GTTTACACGTGTGTCT,0.11 kcal/mol
